Out of some 48,000 compounds screened, about 450 (0.94%) were called active. Another 19% or so got no clear call; they are omitted. Calls follow the shape of the dose curve; as a rule, active = well fitted inhibition curve with a large enough effect; inconclusive = small, poorly fitted or top-dose-only effect; inactive = no such curve, though single readings can be large or run the other way. Some of the results follow.

The nature of this test: Primary qHTS for Identification of Small Molecule Inhibitors of Huntingtin Promoter Activity. Also: nearly all actives have a fitted effect of over 50% in size. The note with it: HEK293 HTT promoter firefly luciferase reporter (activity 0% = vehicle and -100% = no light), 24 h; series mostly up to 57.5 µM; activity change, negative = inhibition: at the top concentration. Summed up:
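HEK293 cells carrying firefly luciferase reporters were seeded at 2,500 per well in Opti-MEM and cultured for 24 h. They were then treated with compounds at up to 57.5 uM final for 24 h at 37 degrees C before Dual-Glo luminescence readout.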
For the molecule `COc1ccc(NC(=O)c2oc3ccccc3c2NC(=O)C23CC4CC(CC(C4)C2)C3)cc1`, the “activity change, negative = inhibition” value is inactive: -15.4%.

With `COc1ccc(S(=O)(=O)N(CC(=O)Nc2ccc3c(c2)OCO3)c2ccc(C)cc2)cc1`, the “activity change, negative = inhibition” value was inactive: -18.4%.

`O=C(NCc1ccccc1Cl)c1ccc(NC(=O)N2CCSc3ccccc32)cc1`: the “activity change, negative = inhibition” value was inactive: -21%.

Regarding `COc1cc(OC)cc(C(=O)Nc2ccc3c(c2)n(C)c(=O)c(=O)n3C)c1`, the “activity change, negative = inhibition” value is inactive: 0.346%.

As for `Cc1ccc(OCc2cc(=O)n3c4c(sc3n2)CCCC4)cc1C`, the “activity change, negative = inhibition” value was inactive: 0.0634%.

Take `Cn1cc(S(=O)(=O)N2CCCCC2)cc1C(=O)Nc1ccc(OC(F)(F)F)cc1`: the “activity change, negative = inhibition” value was inactive: -23.1%.

Regarding `O=C(Cn1cc(S(=O)(=O)c2ccccc2)c(=O)c2cc3c(cc21)OCO3)Nc1ccccc1`, the “activity change, negative = inhibition” value is inactive: -25.7%.

In the case of `Cc1ccc(S(=O)(=O)C(CNC(=O)c2ccc(C(F)(F)F)cc2)c2ccco2)cc1` (stereo not given), the “activity change, negative = inhibition” value is inactive: -24.5%.

With `Cc1noc(-c2ccc(-c3noc(-c4cccc(Cl)c4)n3)cc2)n1`, the “activity change, negative = inhibition” value was inactive: -7.3%.

`CCc1ccc2occ(CC(=O)Nc3sc4c(c3C(=O)NCCOC)CCCC4)c2c1`: the “activity change, negative = inhibition” value is inactive: -30.4%.

Take `N=C(N)c1ccc(OCCCOc2ccc(C(=N)N)cc2)cc1`: the “activity change, negative = inhibition” value is inactive: 4.34%.

As for `Cc1nc2nc(SCC(=O)NC3CCC(C)CC3)nn2c(C)c1Cc1ccccc1Cl` (stereo not given), the “activity change, negative = inhibition” value is inactive: 2.74%.

In the case of `Cc1nc2c(-c3ccccc3)c(C)nn2c(C)c1CCC(=O)NCc1ccccc1`, the “activity change, negative = inhibition” value was inactive: -19.6%.

As to `Cc1ccc(S(=O)(=O)n2nc(-c3ccco3)nc2NCc2ccc(N(C)C)cc2)cc1`, the “activity change, negative = inhibition” value is inactive: -0.106%.

With `COc1ccc2c(c1)c(=O)c(S(=O)(=O)c1ccccc1)cn2CC(=O)Nc1ccc2c(c1)OCO2`, the “activity change, negative = inhibition” value was inactive: -12.2%.

Turning to `CCCN(C(=O)Cn1ncc2c([nH]c3ccccc32)c1=O)c1ccc(F)cc1`, the “activity change, negative = inhibition” value was inactive: -25.5%.

Take `CCOC(=O)C1CCCN(C(=O)c2ccc3c(c2)N(Cc2ccccc2F)C(=O)c2ccccc2S3=O)C1` (stereo not given): the “activity change, negative = inhibition” value was inactive: -5.54%.

In the case of `COc1ccc(CCNC(=O)CCn2c(=O)c3ccccc3n(CC(=O)Nc3cc(Cl)ccc3C)c2=O)cc1OC`, the “activity change, negative = inhibition” value is inactive: -9.75%.

`CC(=O)c1cccc(NC(=O)CCCSc2nc(-c3ccco3)cc(C(F)(F)F)n2)c1`: the “activity change, negative = inhibition” value was inactive: -27.5%.

`COC(=O)C1C2CC3c4[nH]c5cc(OC)ccc5c4CCN3CC2CC(OC(=O)c2cc(OC)c(OC)c(OC)c2)C1OC` (stereo not given): the “activity change, negative = inhibition” value was inactive: -6.59%.

For the molecule `CCc1ccccc1NC(=O)Nc1cc(C(=O)NCc2ccccc2OC)ccc1N1CCCC1`, the “activity change, negative = inhibition” value was inactive: -9.05%.

As for `CCOC(=O)C(C)(C)Oc1ccc(Cl)cc1`, the activity change, negative = inhibition entry is “inactive”.

For the molecule `COc1ccc(NC(=O)CN2C(=O)C(c3ccc(C)cc3)=NC23CCCCCC3)cc1Cl`, the “activity change, negative = inhibition” value is inactive: -29.6%.

For `CN(C)CCNC(=O)C(=O)NCC(c1cccnc1)N1CCN(c2ccccc2)CC1` (stereo not given), the “activity change, negative = inhibition” value is inactive: -15%.

Consider `Cc1ccc(C)c(Cn2c(=O)n(-c3ccc(F)cc3)c(=O)c3sc4ccccc4c32)c1`, for which the “activity change, negative = inhibition” value is inactive: -11%.

For the molecule `CC(=O)N1CCc2cc(S(=O)(=O)NC(Cc3ccccc3)C(=O)Nc3ccc(C)cc3C)ccc21` (stereo not given), the “activity change, negative = inhibition” value is inactive: -22.8%.

For `O=C(CSc1nc2ccsc2c(=O)n1Cc1ccccc1F)NCc1ccccc1Cl`, the “activity change, negative = inhibition” value is inactive: -24.7%.

Take `O=c1cc2nc(-c3ccccc3)nc(SCCOc3ccc(Cl)cc3)n2[nH]1`: the “activity change, negative = inhibition” value was inactive: -13.4%.

As to `COc1ccc(C(=O)Nc2ccc3oc(-c4cc(Cl)ccc4Cl)nc3c2)cc1Br`, the “activity change, negative = inhibition” value was inactive: 5.73%.

For `CCOC(=O)c1cnc2c(C)cc(C)cc2c1Nc1ccccc1OCC`, the “activity change, negative = inhibition” value is inactive: 1.41%.

In the case of `Cc1nn2c(-c3ccco3)ccnc2c1-c1ccc(Cl)cc1`, the “activity change, negative = inhibition” value is inactive: 26.9%.

Take `O=C1CCCc2c(O)cccc21`: the “activity change, negative = inhibition” value is inactive: 10.4%.

Regarding `COC(=O)c1c(NC(=O)/C=C/c2ccc(OC)cc2)sc2c1CCC2`, the “activity change, negative = inhibition” value is inactive: 9.52%.

For `COc1ccc(CNC(=O)CSc2ncc3c(n2)-c2cc(Cl)ccc2N(C)S3(=O)=O)cc1`, the “activity change, negative = inhibition” value is inactive: -20.9%.

For `CC(C)c1cnc2c(c1SCC(=O)Nc1ccc(C(N)=O)cc1)c(=O)n(C)c(=O)n2C`, the “activity change, negative = inhibition” value is inactive: -1.39%.

As to `CCOC(=O)Cn1c(-c2cccs2)cc2cc(Cl)ccc21`, the “activity change, negative = inhibition” value is inactive: -20.7%.

In the case of `Cc1ccc(NC(=O)Nc2cccs2)c(C)c1`, the “activity change, negative = inhibition” value was inactive: -4.48%.

Turning to `O=C(Cn1c(=O)n(-c2ccccc2)c(=O)c2ccc(C(=O)NCc3ccc4c(c3)OCO4)cc21)Nc1ccc(F)c(Cl)c1`, the “activity change, negative = inhibition” value is inactive: -20%.

Turning to `CN(CCCNC(=O)c1cc2c(=O)n(C)c3ccccc3c2s1)Cc1ccccc1`, the “activity change, negative = inhibition” value is inactive: 4.71%.

Consider `COc1ccc(N(C(=O)c2cccc(C)c2)S(=O)(=O)c2ccc3c(c2)n(C)c(=O)n3C)cc1`, for which the “activity change, negative = inhibition” value was inactive: 0.939%.

For `CCOC(=O)c1cc(OC(=O)c2ccccc2OC)n(-c2ccccc2)n1`, the “activity change, negative = inhibition” value is inactive: -4.02%.

On to `COc1ccc(CCNC(=O)c2ccc3c(c2)N(Cc2cccc(Cl)c2)C(=O)c2ccccc2S3=O)cc1OC` (stereo not given), for which the “activity change, negative = inhibition” value is inactive: -13.2%.

On to `O=C(c1ccccc1Br)N(Cc1ccccc1F)C1CCS(=O)(=O)C1` (stereo not given), for which the “activity change, negative = inhibition” value was inactive: 2.01%.

Regarding `CN1CCN(C(=O)c2ccc3c(c2)N(Cc2ccc(Cl)cc2)C(=O)c2ccccc2S3(=O)=O)CC1`, the “activity change, negative = inhibition” value is inactive: -9.19%.

Consider `Cc1cccc(CC(=O)NCCc2sc3nc(-c4ccc(F)cc4)nn3c2C)c1`, for which the “activity change, negative = inhibition” value is inactive: -29.5%.

In the case of `COc1ccc(OCC(=O)N(Cc2ccc(C)o2)C2CCS(=O)(=O)C2)cc1` (stereo not given), the “activity change, negative = inhibition” value is inactive: -10.3%.

Turning to `CCOc1ccc(CCNC(=O)c2ccc(-c3nc(CSc4ccccc4)c(C)o3)cc2)cc1`, the “activity change, negative = inhibition” value was inactive: -7.14%.

Consider `CCc1ccc(N(CC)C(=O)c2sc3nc4n(c(=O)c3c2C)CCCC4)cc1`, for which the “activity change, negative = inhibition” value is inactive: -21.6%.

For `O=C(Cn1c(=O)ccc2cc(S(=O)(=O)N3CCCC3)ccc21)Nc1ccc(Cl)cc1`, the “activity change, negative = inhibition” value was inactive: -25.7%.

In the case of `NS(=O)(=O)c1cc(-c2nn[nH]n2)c(NCc2cccs2)cc1Cl`, the “activity change, negative = inhibition” value was inactive: 13.5%.

Regarding `Cn1nnnc1SCCCNCc1ccccc1OCc1ccc(F)cc1`, the “activity change, negative = inhibition” value was inactive: -32.7%.

`CCN(C(=O)c1cn(C)c(=O)c2ccccc12)c1cccc(C)c1`: the “activity change, negative = inhibition” value is inactive: -11.6%.

Consider `O=C(CCc1ccccc1)NCc1ccc2c(c1)CCN2C(=O)c1ccccc1`, for which the “activity change, negative = inhibition” value was inactive: -7.83%.

For `CC(=O)N1CCc2c(sc3c2c(=O)n(CCc2ccccc2)c(=O)n3CC(=O)Nc2ccccc2F)C1`, the “activity change, negative = inhibition” value is inactive: -8.35%.

For the molecule `COc1ccc(-n2c(SCC(=O)c3ccc(Cl)cc3)nc3c([nH]c4ccccc43)c2=O)cc1`, the “activity change, negative = inhibition” value was inactive: -1.38%.

`COc1cccc(NC(=O)Cn2c(=O)n(-c3ccccc3)c(=O)c3ccc(C(=O)NCc4ccc5c(c4)OCO5)cc32)c1`: the “activity change, negative = inhibition” value was inactive: -22%.

In the case of `COc1ccccc1N1CCN(c2ccc(=O)n(CC(=O)Nc3cc(F)ccc3C)n2)CC1`, the “activity change, negative = inhibition” value was inactive: -0.83%.

With `CCc1ccc(NC(=O)CN2C(=O)C3CCCN3c3ccc(S(=O)(=O)N(CC)CC)cc32)cc1` (stereo not given), the “activity change, negative = inhibition” value was inactive: -20.1%.

On to `Cn1cc(S(=O)(=O)N2CCCCCC2)cc1C(=O)N1CCN(c2ccccc2F)CC1`, for which the “activity change, negative = inhibition” value is inactive: -24.3%.

`CCC(Cc1c(I)cc(I)c(N)c1I)C(=O)O` (stereo not given): the “activity change, negative = inhibition” value is inactive: -7.9%.

The record behind these values is PubChem BioAssay AID1508623 (National Center for Advancing Translational Sciences (NCATS), 2021).
